The whole screen tested about 350,000 compounds, of which about 31,000 (8.9%) were called active. Inconclusive means that the source gave no clear call. Such entries were picked first, then a sample of the others. Calls come from the whole dose curve; as a rule, active = well fitted inhibition curve with a large enough effect; inconclusive = small, poorly fitted or top-dose-only effect; inactive = no such curve, though single readings can be large or run the other way. Potencies of inconclusive entries are doubtful fits and often do not repeat.
What follows are compounds tested against Histone-lysine N-methyltransferase EHMT2 (Homo sapiens) (UniProt Q96KQ7) (assay: qHTS Assay for Inhibitors of Histone Lysine Methyltransferase G9a). Conditions: G9a H3K9 monomethylation, AlphaScreen, 2 h; activity, negative = inhibition: at 59 µM (top of the series) unless noted.
How it was run: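 Readings reflect AlphaScreen signal from monomethyl-H3K9 antibody detection. HMT at 20 nM; substrate b-H3K9 500 nM; cofactor SAM 20 uM; 2 h RT reaction; compounds tested as titrations in qHTS with 15 min preincubation.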
% is set by controls: 0 for no effect and ±100 for the full control effect; potency is the fitted concentration of half-maximal effect; tags give direction and shape of the fitted curve.
Note: nearly all actives have a fitted effect of over 75% in size.

UniProt Q96KQ7, sequence (Q96KQ7 whole entry, looked up): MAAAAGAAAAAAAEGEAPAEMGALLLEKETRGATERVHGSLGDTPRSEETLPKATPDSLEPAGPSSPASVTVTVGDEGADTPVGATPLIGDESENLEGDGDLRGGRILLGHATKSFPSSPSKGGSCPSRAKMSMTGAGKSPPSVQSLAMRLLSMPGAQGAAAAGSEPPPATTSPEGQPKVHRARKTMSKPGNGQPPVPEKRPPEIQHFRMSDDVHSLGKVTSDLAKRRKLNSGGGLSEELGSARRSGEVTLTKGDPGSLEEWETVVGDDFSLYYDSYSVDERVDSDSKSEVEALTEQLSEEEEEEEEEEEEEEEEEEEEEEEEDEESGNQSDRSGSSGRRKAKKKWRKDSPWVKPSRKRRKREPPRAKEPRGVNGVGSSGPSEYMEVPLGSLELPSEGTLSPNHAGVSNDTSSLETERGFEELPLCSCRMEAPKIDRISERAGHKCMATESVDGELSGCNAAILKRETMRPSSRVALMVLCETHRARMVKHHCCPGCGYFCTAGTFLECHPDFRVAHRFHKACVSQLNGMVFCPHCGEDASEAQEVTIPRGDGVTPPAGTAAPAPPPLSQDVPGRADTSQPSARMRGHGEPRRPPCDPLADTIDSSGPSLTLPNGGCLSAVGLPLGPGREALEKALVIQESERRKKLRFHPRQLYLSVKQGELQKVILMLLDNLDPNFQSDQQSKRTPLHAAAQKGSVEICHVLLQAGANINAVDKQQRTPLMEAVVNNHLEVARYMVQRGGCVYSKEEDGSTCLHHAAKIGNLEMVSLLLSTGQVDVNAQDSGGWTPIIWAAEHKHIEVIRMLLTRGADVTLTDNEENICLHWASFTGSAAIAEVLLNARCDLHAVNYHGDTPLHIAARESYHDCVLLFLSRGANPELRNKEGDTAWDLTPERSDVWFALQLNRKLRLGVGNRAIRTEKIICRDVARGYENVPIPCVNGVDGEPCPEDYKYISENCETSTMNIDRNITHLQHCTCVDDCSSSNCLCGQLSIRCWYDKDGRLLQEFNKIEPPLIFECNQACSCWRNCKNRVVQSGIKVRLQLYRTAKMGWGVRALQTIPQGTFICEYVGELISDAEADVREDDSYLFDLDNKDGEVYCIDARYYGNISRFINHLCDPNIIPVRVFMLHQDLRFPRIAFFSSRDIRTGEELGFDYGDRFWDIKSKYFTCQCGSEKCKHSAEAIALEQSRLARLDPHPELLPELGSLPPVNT

Structure (SMILES) | activity, negative = inhibition | Potency
COc1cccc(C(c2sc3nc(-c4ccco4)nn3c2O)N2CCN(C)CC2)c1 (stereo unspecified) | inactive: -32.3% | –
CCN(CC)S(=O)(=O)c1ccc2c(c1)nc(SCn1nnc3ccccc3c1=O)n2CC | – | active: 44.7 µM
CCN(c1cccc(C)c1)S(=O)(=O)c1c(C)nc2sc(C)cn2c1=O | inactive: -2.64% | –
CN(C(=O)CNC(=O)c1ccc(Br)o1)C1CCCCC1 | – | inconclusive: 89.1 µM [inhibitor, single point]
O=C(Cn1cc(C(=O)c2cccs2)c2ccccc21)Nc1ccc(Br)cc1 | inactive: -9.11% | –
CCN(CC)C(=O)C1CCCN(c2ccc([N+](=O)[O-])cc2/C=N/NC(=O)c2cccc(O)c2)C1 (stereo unspecified) | – | inconclusive: 11.2 µM [inhibitor, partial curve, poor fit]
O=C(/C=C/c1cn(-c2ccccc2)nc1-c1cccc(Cl)c1)N1CCN(c2ccccn2)CC1 | – | inconclusive: 10 µM [inhibitor, partial curve]
O=C(NC(=S)Nc1ccc2c(c1)C(=O)c1ccccc1C2=O)c1ccc(F)cc1 | – | inconclusive: 15.8 µM [inhibitor, partial curve, poor fit]
CCCCNc1cc(NC(C)=O)cc2cc(OC)c(OC)cc12 | – | active: 44.7 µM
O=C(CCc1ccccc1)Nc1ccc(N2CCCCC2)cc1 | – | active: 8.91 µM
N=C(N)CCCOc1ccccc1-c1ccccc1 | inactive: 4.86% | –
O=C(O)CCC(=O)Nc1ccc(SSc2ccc(NC(=O)CCC(=O)O)cc2)cc1 | – | inconclusive: 0.562 µM [inhibitor, partial curve, poor fit]
CCOc1cc(N2CCOCC2)c(OCC)cc1NS(=O)(=O)c1cc(NC(C)=O)ccc1OC | – | active: 44.7 µM
Cc1cc(C)c2cc(C#N)c(SCC(=O)NCc3ccco3)nc2c1 | – | inconclusive: 1 µM [inhibitor, partial curve, poor fit]
O=C(CCS(=O)(=O)c1cc(Br)cc2c1N(C(=O)C1CC1)CC2)N1CCN(c2cccc(C(F)(F)F)c2)CC1 | inactive: -27.6% | –
Cc1ccc(CSc2nc3ccncc3n2Cc2nc(-c3ccccc3C)oc2C)cc1 | – | inconclusive: 0.631 µM [inhibitor, full curve, poor fit]
O=C(CN1C(=O)N/C(=C\c2ccccc2OCc2ccc(C(=O)O)cc2)C1=O)Nc1ccccc1F | – | active: 56.2 µM
O=C(CCc1ccccc1)OCC(=O)c1cccc([N+](=O)[O-])c1 | – | inconclusive: 50.1 µM [inhibitor, partial curve]
COc1ccc2c(c1)c1c(c(=O)n(-c3cccc(C)c3)c(=O)n1CC(=O)NCc1ccc(C)cc1)n2C | inactive: 0.0459% | –
COc1cc(-c2nc3ccccn3c2/N=C/c2ccc(F)cc2)ccc1O | – | active: 35.5 µM
Cc1cccc(OCC(=O)OC(C)C(=O)Nc2ccc(S(=O)(=O)N3CCCCC3)cc2)c1 (stereo unspecified) | – | inconclusive: 44.7 µM [inhibitor, partial curve]
COc1ccccc1-n1c(=S)[nH]c2c(sc(=S)n2-c2ccccc2C)c1=O | – | inconclusive: 22.4 µM [inhibitor, partial curve, poor fit]
COc1ccccc1-c1noc(CSc2nc(C)cc(=O)[nH]2)n1 | – | inconclusive: 8.91 µM [inhibitor, partial curve, poor fit]

Structure (SMILES) | activity, negative = inhibition | Potency
Nc1ccc2nc(NC(=O)C3CCCCC3)sc2c1 | – | inconclusive: 28.2 µM [inhibitor, partial curve, poor fit]
COc1cc(C2C3=C(CC(C)(C)CC3=O)Nc3c2c(=O)[nH]c(=O)n3Cc2ccccc2)ccc1O (stereo unspecified) | – | inconclusive: 89.1 µM [inhibitor, single point]
COc1ccc(-n2ccn(CC(=O)Nc3ccc(C)cc3C)c(=O)c2=O)cc1 | inactive: -8.27% | –
CCN1CCCC1CNC(=O)c1cc(NC(C)=O)c(N(C)C)cc1OC (stereo unspecified) | inactive: 21.7% | –
Cc1ccc(Nc2nc(Nc3ccc(C)cc3)nc(SC3=NCCS3)n2)cc1 | – | inconclusive: 89.1 µM [inhibitor, single point]
C=CCNC(=O)C(=O)NCC(c1ccc2c(c1)OCO2)N1CCN(c2ccc(F)cc2)CC1 (stereo unspecified) | inactive: -18.1% [at 102 µM] | –
C[Se]CC[C@H](N)C(=O)O | – | inconclusive: 0.794 µM [inhibitor, partial curve, poor fit]
CCC(=O)NC(=S)NNC(=O)c1ccccc1[N+](=O)[O-] | – | active: 3.16 µM
CCOc1ccccc1NC(=O)CCC(=O)Nc1nnc(C2CCCCC2)s1 | – | inconclusive: 89.1 µM [inhibitor, partial curve, poor fit]
Cc1ccc(OCC(=O)Nc2ccc3nn(-c4ccc(C)cc4)nc3c2)cc1 | inactive: 13.1% | –
COC(=O)c1cc(C)nc2c1c(=O)nc(SCc1ccccc1Cl)n2C1CC1 | inactive: -19.7% | –
Cn1c(CCNC(=O)c2ccco2)nc2cc(NC(=O)c3ccco3)ccc21 | – | active: 14.1 µM
COc1ccc(NC(=O)Cc2ccccc2F)cc1S(=O)(=O)N1CCCCC1 | – | active: 0.316 µM
CCOc1ccc(C(C)NC(=O)Cc2ccccc2F)cc1OCC (stereo unspecified) | – | inconclusive: 89.1 µM [inhibitor, single point]
CCN(CC(=O)Nc1ccc(N2CCOCC2)cc1)Cc1nc2ccccc2c(=O)[nH]1 | inactive: -50.1% [at 102 µM] | –
COc1ccc2sc(N(CCCN(C)C)C(=O)c3ccc(S(=O)(=O)N4CCCC4)cc3)nc2c1 | – | inconclusive: 56.2 µM [inhibitor, partial curve, poor fit]
Cc1cc(N=NC(=O)c2ccccc2)ccc1O | – | inconclusive: 5.01 µM [inhibitor, single point]
COc1cc(NC(=S)N2CCN(S(=O)(=O)c3ccc(C)cc3)CC2)cc(OC)c1 | – | inconclusive: 17.8 µM [inhibitor, full curve]
C/C(=C\C(=O)c1ccc(Cl)cc1Cl)N(C)C | inactive: -34.2% [at 102 µM] | –
CN(C)S(=O)(=O)c1cccc(NC(=O)COC(=O)/C=C/c2ccc3c(c2)OCO3)c1 | inactive: -0.641% [at 102 µM] | –
CN(C)S(=O)(=O)c1cccc(NC(=O)c2ccc(N3CCOCC3)c([N+](=O)[O-])c2)c1 | – | active: 50.1 µM
N#C/C(=C\c1cccnc1)c1ccccn1 | inactive: 29.4% [at 102 µM] | –
Cc1c(Cl)cnc(NC(=O)COC(=O)Cc2coc3ccc4ccccc4c23)c1Cl | – | inconclusive: 39.8 µM [inhibitor, partial curve, poor fit]
